This is one part of the list. Further columns of the screen follow, without active or inactive calls.
What was measured:
Test in all cases: Primary Screen for Target Class Profiling of Small Molecule Inhibitors of Methyltransferases
[1] = biological target: Glycine N-methyltransferase (Homo sapiens) (UniProt Q14749); details: purified enzyme, MTase-Glo SAH luminescence; measured here: GNMT inhibition; at 40 µM; stronger effect = lower value
In short: (§1)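 Each enzyme was reacted with SAM and its substrate, with compounds tested once at 40 uM; SAH formed was read by MTase-Glo luminescence.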

[2] = biological target: Guanidinoacetate N-methyltransferase (Homo sapiens) (UniProt Q14353); details: purified enzyme, MTase-Glo SAH luminescence; measured here: GAMT inhibition; at 40 µM; stronger effect = lower value
In short: as §1

[3] = biological target: Histamine N-methyltransferase (Homo sapiens) (UniProt P50135); details: purified enzyme, MTase-Glo SAH luminescence; measured here: HNMT inhibition; at 40 µM; stronger effect = lower value
In short: as §1

[4] = biological target: Nicotinamide N-methyltransferase (Homo sapiens) (UniProt P40261); details: purified enzyme, MTase-Glo SAH luminescence; measured here: NNMT inhibition; at 40 µM; stronger effect = lower value
In short: as §1

[5] = biological target: Phenylethanolamine N-methyltransferase (Homo sapiens) (UniProt P11086); details: purified enzyme, MTase-Glo SAH luminescence; measured here: PNMT inhibition; at 40 µM; stronger effect = lower value
In short: as §1
% is set by controls: 0 for no effect and ±100 for the full control effect.

SMILES | activity change, negative = inhibition [1] [%] | activity change, negative = inhibition [2] [%] | activity change, negative = inhibition [3] [%] | activity change, negative = inhibition [4] [%] | activity change, negative = inhibition [5] [%]
O=C(Nc1ccc(F)cc1)N1Cc2ccccc2-n2cccc2C1c1cccc(Cl)c1 (configuration not stated) | 9.94 | 1.63 | 3.75 | 3.16 | 7.84
CCOC(=O)c1ccccc1NC(=O)N1Cc2ccccc2-n2cccc2C1c1ccccc1C (configuration not stated) | 15.8 | 0 | 8.86 | 1.18 | 8.65
Oc1ccc2c(c1)C13CCCC[C@H]1[C@@H](C2)N(CC1CCC1)CC3 | -4.91 | 5.28 | -50.5 | -24.2 | -10.6
Cc1ccc(CNC(=O)N2Cc3ccccc3-n3cccc3C2c2cccs2)cc1 (configuration not stated) | 9.35 | 1.76 | -1.22 | -8.93 | -1.24
Cc1cc(SCc2sc(-c3ccc(C(F)(F)F)c(F)c3)nc2C)ccc1OCC(=O)O | -24.5 | 11.4 | 6.51 | -26.5 | 8.77
CC(C)C1c2cccn2-c2ccccc2CN1C(=O)Nc1ccc(Br)cc1F (configuration not stated) | 3.4 | 0.423 | -0.944 | 5.1 | 5.45
Cc1cccc(C2c3cccn3-c3ccccc3CN2C(=O)Nc2ccc(Br)c(C)c2)c1 (configuration not stated) | 10.8 | 0.451 | 12.2 | 11.8 | 8.8
Cc1ccc(C2c3cccn3-c3ccccc3CN2C(=O)Nc2ccccc2Br)cc1 (configuration not stated) | 4.31 | -1.46 | -0.169 | -4.17 | -2.27
Cc1sc2c(c1C)C(c1ccc(Cl)cc1)=NC(CC(=O)OC(C)(C)C)c1nnc(C)n1-2 (configuration not stated) | -1.35 |  | 6 |  | 
CCOC(=O)Cc1ccc(NC(=O)N2Cc3ccccc3-n3cccc3C2c2cccs2)cc1 (configuration not stated) | 7.82 | 0 | -1.86 | 1.69 | 6.77
CCOc1ccc(C2c3cccn3-c3ccccc3CN2C(=O)Nc2ccccc2OC)cc1 (configuration not stated) | -1.57 | 2.19 | -2.58 | -6.57 | -3.56
CC(=O)NBr | 0.189 | 7.07 | 2.41 | -6.97 | -1.53
CC(C)(O)[C@@H]1C2OC(=O)[C@@H]1[C@]1(O)C[C@H]3O[C@]34C(=O)O[C@H]2[C@]14C (tested in a mixture with another compound) | 5.47 | 10.8 | 1.83 | -4.14 | 7.33
CCc1ccc(C2c3cccn3-c3ccccc3CN2C(=O)Nc2ccccc2)cc1 (configuration not stated) | 8.46 | 3.3 | 1.75 | -1.57 | 2.09
CCc1ccc(C2c3cccn3-c3ccccc3CN2C(=O)Nc2ccccc2C(F)(F)F)cc1 (configuration not stated) | 7.25 | 0 | -4.45 | 0.132 | 5.47
Cc1cc(C)cc(NC(=O)N2Cc3ccccc3-n3cccc3C2c2cccs2)c1 (configuration not stated) | 2.5 | 0 | -0.674 | -0.773 | 3.98
CCOC(=O)CNC(=O)N1Cc2ccccc2-n2cccc2C1c1cc(F)cc(F)c1 (configuration not stated) | -0.408 | 4.8 | -1.77 | -12.6 | -0.4
Cc1c2ccncc2c(C)c2c1[nH]c1ccccc12 | -71.1 | -52.9 | -66.5 | -62.5 | -69
CC(C)C1c2cccn2-c2ccccc2CN1C(=O)Nc1ccc(F)c(Cl)c1 (configuration not stated) | 0.881 | 0 | 4.17 | 4.75 | 4.41
COc1cc(OC)c(NC(=O)N2Cc3ccccc3-n3cccc3C2c2ccc(F)cc2)cc1Cl (configuration not stated) | -8.15 | 0.818 | -1.86 | 0.396 | 4.25
Cc1cccc(C2c3cccn3-c3ccccc3CN2C(=O)NCc2ccccc2)c1 (configuration not stated) | 5.87 | 0 | 5.84 | 2.41 | 2.31

— PubChem BioAssay AID1745853 (National Center for Advancing Translational Sciences (NCATS), 2022)
